Laboratory results: PubChem BioAssay AID485341 (National Center for Advancing Translational Sciences (NCATS), 2010)
In all, about 330,000 compounds went through this assay and about 1,700 (0.52%) were called active. Inconclusive results, whose numbers are uncertain, are shown with a selection of clear calls. The call rests on the fitted dose curve; in most records, active means well fitted inhibition curve with a large enough effect; inconclusive means small, poorly fitted or top-dose-only effect; inactive means no such curve, though single readings can be large or run the other way. Where the call is inconclusive, the potency comes from a doubtful curve fit.

biological target: Beta-lactamase (Escherichia coli (strain K12)) (UniProt P00811); assay: qHTS Inhibitors of AmpC Beta-Lactamase (assay without detergent); settings: AmpC nitrocefin hydrolysis, absorbance 480 nm, 0.0001% Triton; activity change, negative = inhibition: at 57.1 µM (top of the series) unless noted; further: nearly all actives have a fitted effect of over 20% in size;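 on activity change, negative = inhibition: plate controls were no compound for no effect and no enzyme for full effect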
Outline: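 20 mM phosphate pH 7.0 + 0.01% (detergent screen) or 0.0001% Triton X-100; 5.3 nM AmpC reagent; cpd preinc 15 min RT; nitrocefin (800 uM stock) to start; A480 q20 s × 4 min; Activity was normalised to no-enzyme and no-compound control wells.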
Potency means the concentration at half of the fitted maximal effect; tags describe the fitted curve by direction and shape.

Sequence of UniProt P00811 (P00811 whole entry, looked up): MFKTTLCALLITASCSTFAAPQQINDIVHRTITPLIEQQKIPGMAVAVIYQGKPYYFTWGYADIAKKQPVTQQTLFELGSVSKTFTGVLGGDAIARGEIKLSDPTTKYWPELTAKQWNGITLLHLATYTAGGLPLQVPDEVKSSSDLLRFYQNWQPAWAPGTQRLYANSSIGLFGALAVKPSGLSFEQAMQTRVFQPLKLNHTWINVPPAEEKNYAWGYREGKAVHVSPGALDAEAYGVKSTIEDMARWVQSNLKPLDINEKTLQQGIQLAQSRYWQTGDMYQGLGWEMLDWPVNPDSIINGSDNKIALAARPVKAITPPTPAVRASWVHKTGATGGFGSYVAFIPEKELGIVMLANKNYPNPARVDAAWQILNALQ

Row | Structure (SMILES) | Potency | activity change, negative = inhibition
1 | Cc1onc(-c2ccccc2)c1C(=O)Nc1nc(-c2ccc(F)c(F)c2)cs1 | inconclusive: 6.31 µM [inhibitor, full curve, poor fit] | –
2 | CC1CCN(c2ccc(C(=O)O)cc2N)CC1 | inactive | –
3 | CCOC(=O)c1ccc(N2C(=O)C3C(/C=C/c4ccccc4)OC4(C(=O)c5ccccc5C4=O)C3C2=O)cc1 (stereo not given) | inactive | –
4 | CC(C)N(Cc1nnc(-c2ccc(Cl)cc2)o1)C(=O)C1=COCCO1 | inconclusive: 39.8 µM [inhibitor, single point] | –
5 | Cc1cccc(C(=O)N2CCC(n3nnc4cc(F)ccc43)CC2)c1 | inconclusive: 5.01 µM [inhibitor, single point] | –
6 | O=C(Nc1ccc2c(c1)OCO2)c1cc(-c2cccc(O)c2)on1 | inconclusive: 17.8 µM [inhibitor, partial curve] | –
7 | Cc1nnc(Sc2cc(NCCCO)c([N+](=O)[O-])c3nonc23)s1 | active: 28.2 µM | –
8 | COC(=O)c1c(C)[nH]c(C(=O)OC(C)C(=O)N(C)C2CCCCC2)c1C (stereo not given) | inconclusive: 39.8 µM [inhibitor, single point] | –
9 | Cc1ccc2[nH]c3c(c2c1)CC/C(=C/c1ccccc1)C3=O | inactive | –
10 | O=C(CCSc1nc2cc(Cl)ccc2o1)N1CCOCC1 | inconclusive: 1.41 µM [inhibitor, partial curve, poor fit] | –
11 | CCOc1ccc(S(=O)(=O)NCCC(=O)NCCc2ccc(OCC)c(OCC)c2)cc1 | inconclusive: 39.8 µM [inhibitor, single point] | –
12 | CSc1cccc(NC(=O)/C=C/c2ccc(Cl)cc2)c1 | inconclusive: 28.2 µM [inhibitor, partial curve] | –
13 | CCOC(=O)Cc1c(C)nc2c(-c3cccc(Br)c3)cnn2c1C | inactive | –
14 | c1ccc(-n2nnnc2SCc2cccc(CSc3nnnn3-c3ccccc3)n2)cc1 | inconclusive: 10 µM [inhibitor, partial curve] | –
15 | CN=c1scc(-c2cccs2)n1/N=C/c1ccc(O)c(O)c1O | inconclusive: 15.8 µM [inhibitor, partial curve] | –
16 | Cn1c(=O)c2c(SCC(N)=O)nc(CC(C)(C)C)nc2n(C)c1=O | active: 6.31 µM | –
17 | COc1ccc(CC(=O)Nc2nc(-c3ccc(F)c(F)c3)cs2)cc1 | inconclusive: 0.562 µM [inhibitor, partial curve, poor fit] | –
18 | O=C(Nc1ccc2c(c1)OCCO2)c1cccs1 | inactive | –
19 | Cc1cc(NC(=O)CSCC(=O)OCC(=O)c2cccc(Br)c2)no1 | active: 31.6 µM | –
20 | O=C(/C=C/c1cccs1)N1CCCCC1 | inactive | –
21 | COc1cccc(N2CC(NS(=O)(=O)c3ccc4ccccc4c3)CC2=O)c1 (stereo not given) | inconclusive: 35.5 µM [inhibitor, single point] | –
22 | CN(CC(=O)Nc1cccc(F)c1)C(=O)c1ccc(COc2ccccc2)cc1 | inconclusive: 35.5 µM [inhibitor, single point] | –
23 | Cc1[nH]c2ccccc2c1/C=N/NC(=O)C1CC1(c1ccccc1)c1ccccc1 (stereo not given) | active: 11.2 µM | –
24 | CC(C)Oc1cccc(C(=O)NC(=S)Nc2cccc(NC(=O)c3ccccc3Cl)c2)c1 | active: 3.16 µM | –

Row | Structure (SMILES) | Potency | activity change, negative = inhibition
25 | O=C(CN1CCN(C(=O)c2ccco2)CC1)Nc1cccc(S(=O)(=O)N2CCCC2)c1 | inactive | –
26 | CC(OC(=O)c1ccc(NC(=O)CC#N)cc1)C(=O)Nc1ccc(Oc2ccccc2)cc1 (stereo not given) | active: 6.31 µM | –
27 | CCOc1ccc(-c2nc(C#N)c(N3CCCCCC3)o2)cc1 | inconclusive: 0.316 µM [inhibitor, full curve, poor fit] | –
28 | COc1ccc(Cl)cc1NC1=NCC(C)S1 (stereo not given) | inconclusive: 5.62 µM [inhibitor, single point] | –
29 | COC(=O)c1sccc1NC(=O)Nc1ccc(Cl)c(Cl)c1 | active: 0.158 µM | –
30 | O=C(Nc1ccc2c(c1)OCO2)N1CCN(c2cccc(C(F)(F)F)c2)CC1 | inconclusive: 3.16 µM [inhibitor, partial curve, poor fit] | –
31 | CCOC(=O)C1(CCOc2ccccc2)CCN(Cc2ccc(NC(C)=O)cc2)CC1 | inactive | –
32 | NC(=O)c1cc(-c2csc(NCCc3ccccc3)n2)ccc1O | inconclusive: 12.6 µM [inhibitor, partial curve, poor fit] | –
33 | O=C(CSc1nnc(C2CC2)n1-c1ccccc1)N1CCCC1 | inactive | –
34 | Cc1ccc(NC(=O)c2ccc(C(=O)c3ccccc3)cc2)nc1 | inactive | –
35 | N#Cc1ccc2c(c1)C[C@]1(CCCCN3C(=O)c4ccccc4C3=O)Oc3c(c(=O)oc4ccc(F)cc34)C2O1 | – | inactive: -23.3% [at 11.4 µM]
36 | CSc1ccccc1OCc1cc(C(=O)N[C@H]2CCCCNC2=O)no1 | inactive | –
37 | N#Cc1ccc(-c2ccco2)nc1SCC(=O)c1ccc(Cl)cc1 | active: 10 µM | –
38 | O=C(/C=C/c1ccc([N+](=O)[O-])cc1)Nc1ncc([N+](=O)[O-])s1 | inconclusive: 22.4 µM [inhibitor, partial curve] | –
39 | CCCC(=O)Nc1ccc2nc(SCC(=O)Nc3nccs3)sc2c1 | inconclusive: 7.94 µM [inhibitor, full curve, poor fit] | –
40 | NS(=O)(=O)c1ccc(N2N=C(c3ccccc3)CC2c2ccccc2Br)cc1 (stereo not given) | inconclusive: 2.82 µM [inhibitor, full curve, poor fit] | –
41 | CCOC(=O)c1c(NC(=O)CSc2nnc(N)s2)sc(C)c1-c1ccc(C)cc1 | inconclusive: 0.891 µM [inhibitor, full curve, poor fit] | –
42 | COc1ccc2nc(Nc3ccccc3)sc2c1 | inconclusive: 28.2 µM [inhibitor, single point] | –
43 | Cc1ccc(C(=O)c2no[n+]([O-])c2C(=O)c2ccc(C)cc2)cc1 | inactive | –
44 | O=C1C2C(c3ccccc3)=NN(c3ccccc3)C2C(=O)N1c1ccccc1 (stereo not given) | inconclusive: 3.16 µM [inhibitor, full curve, poor fit] | –
45 | CCOC(=O)c1ccc(NC(=O)Cn2nnc(-c3ccccc3F)n2)cc1 | active: 35.5 µM | –
46 | Cc1ccccc1NCC(=O)N/N=C/c1c(C)c(C(=O)c2ccc(Cl)cc2)n2ccccc12 | inconclusive: 4.47 µM [inhibitor, single point] | –
47 | Cc1cc(=O)n2cc(-c3ccccc3)nc2[nH]1 | inconclusive: 0.316 µM [inhibitor, full curve, poor fit] | –
48 | Cc1cc(-c2[nH]nc3c2C(c2ccc(Cl)cc2)C(C#N)=C(N)O3)c(C)s1 (stereo not given) | inconclusive: 2.24 µM [inhibitor, full curve, poor fit] | –

Row | Structure (SMILES) | Potency | activity change, negative = inhibition
49 | CC1(C)CC(=O)c2cc(NC(=O)c3ccc(F)cc3)c(=O)oc2C1 | inactive | –
50 | O=C(Nc1nc(-c2ccc(Cl)cc2Cl)cs1)c1ccc(OCC2CCCO2)cc1 (stereo not given) | inconclusive: 3.98 µM [inhibitor, partial curve] | –
51 | Cc1ccccc1NC(=O)Cc1nc(COC(=O)c2ccc(Cl)c(S(N)(=O)=O)c2)cs1 | active: 35.5 µM | –
52 | Cc1ccc2nnc(Cl)n2n1 | inconclusive: 5.01 µM [inhibitor, single point] | –
53 | Cc1ccc(NC(=O)C(c2ccccc2)C2CCCC2)cc1 (stereo not given) | inconclusive: 31.6 µM [inhibitor, partial curve] | –
54 | O=C(OCc1nnc(-c2ccccc2)o1)c1cc(S(=O)(=O)N2CCOCC2)ccc1F | inconclusive: 39.8 µM [inhibitor, single point] | –
55 | CCOC(=O)CNc1ncnc2nc[nH]c12 | inconclusive: 20 µM [inhibitor, partial curve, poor fit] | –
56 | O=C(Nc1sccc1C(=O)NCc1ccco1)c1cccnc1 | inconclusive: 7.08 µM [inhibitor, single point] | –
57 | COc1ccc(CNC(=O)CSc2ccc(Br)cc2)cc1OC | inactive | –
58 | COc1ccc(C)cc1NC(=O)CSc1ccc(-c2ccccn2)nn1 | inactive | –
59 | CC(Nc1ccc2c(c1)OCCO2)C(=O)N1CCc2ccccc21 (stereo not given) | inconclusive: 35.5 µM [inhibitor, single point] | –
60 | O=C(CN1CCCCC1)Nc1cccc(-n2cnnn2)c1 | active: 0.141 µM | –
61 | CCOC(=O)c1c(NC(=O)CSc2nnc(-c3c[nH]c4ccccc34)n2CCOC)sc2c1CCCCC2 | inconclusive: 3.55 µM [inhibitor, partial curve] | –
62 | O=C(Nc1cc(Sc2nc3ccccc3s2)cc([N+](=O)[O-])c1)c1ccccc1F | inconclusive: 20 µM [inhibitor, single point] | –
63 | O=C(Cn1c(=O)oc2cc(S(=O)(=O)N3CCCC3)ccc21)NC1CCCc2ccccc21 (stereo not given) | active: 10 µM | –
64 | Cc1csc2ncc(C(=O)NC(C)c3ccccc3)c(=O)n12 (stereo not given) | inconclusive: 6.31 µM [inhibitor, full curve, poor fit] | –
65 | Cc1ccc(NS(=O)(=O)c2ccc(NC(=O)CSc3ccc(Cl)cc3)cc2)c(C)c1 | inactive | –
66 | CCCCOc1ccc(CN2CCCCC2)cc1 | inconclusive: 6.31 µM [inhibitor, single point] | –
67 | S=c1[nH]nc(-c2cc3c(s2)-c2ccccc2CC3)o1 | inconclusive: 3.55 µM [inhibitor, single point] | –
68 | COC(=O)c1ccc(Sc2ccccc2NS(=O)(=O)c2ccc(OC)cc2)nc1 | inconclusive: 0.141 µM [inhibitor, full curve, poor fit] | –
69 | Cn1c(-c2sc3cc(C(F)(F)F)cnc3c2-c2ccccc2)n[nH]c1=S | inconclusive: 8.91 µM [inhibitor, full curve, poor fit] | –
70 | COc1ccccc1CNC(=O)COC(=O)c1cccnc1SCC(=O)NCc1ccccc1OC | inconclusive: 35.5 µM [inhibitor, single point] | –
